The source gives no read counts; variants with many changes may rest on few reads.

To fix the notation:
B1: CPEB3 Ribozyme (parent)
chain: UAACAGGGGGCCACAGCAGAAGCGUUCACGUCGCAGCCCCUGUCAGAUUCUGGUGAAUCUGCGAAUUCUGCUGUAUAUCUC

In this series the parent is B1. Kind of series: self-cleavage, relative activity (ratio to wild type); higher = more cleavage; in vitro, sequencing. In a few lines:
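CPEB3 self-cleaving ribozyme mutant libraries were made by rounds of error-prone PCR, barcoded, and transcribed in vitro with T7 RNA polymerase for 5 hours at 37°C. Cleavage occurred during transcription and a 15 min DNase I step before EDTA stop. RNAs were reverse transcribed with template switching and Illumina-sequenced, with DNA sequencing mapping barcodes to variants. Relative activity is the variant's cleaved/total read fraction divided by wild type's (minimum 5 reads), averaged across three batches.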
UAACAGGGGGCCACAGCAGAAGCGUUCACGUCGCAGCCCUAGUCAGAUUCUGGUGAAUCUGCGAAUUCUGCUGUAUACCUC: the self-cleavage amounted to 0.1.
For UAACAGGGGGCCACAGCAGAAGCGUUCACGUCGCAGCCCUUGUCAGGUCCUGGUGAAUCUGCGAAUCCUGCUGUAUAUCUC, the self-cleavage was determined as 0.05.
For the variant UAACAGGGGGCCACAGCAGAAGCGUUCACGUCGCAGCCCGUGUCAGAUUCUGGUGAAUCUGCGGAUUCUGCUGUUUAUCUC, the self-cleavage is 0.31.
To UAACAGGGGGCCACAGCAGAAGCGUUCACGUCGCAGCCCUUGUCAGAUUCUGGUAAAUCUGCGUAUUCUGCUGUAUAUCUC belongs 0.12.
For UAACAGGGGGCCACAGCAGAAGCGUUCACGUCGCAGCCCUUGUCAGUUUCUGGUGAAUCUGCGAAUUCUGCUGUGUAUCCC the value was 0.84; for UAACAGGGGGCCACAGCAGAAGCGUUCACGUCGCAGCCCGUGUCCGAUUCUGGUGAAUCUGGGAAUUCUGCUGUAUAUCUC, 0.15; for UAACAGGGGGCCACAGCAGAAGCGUUCACGUCGCAGCCCUUGUCGGAUUCUGAUGAAUCUGCGAAUUCUGCUGUAUAUCUC, 0.41.
To UAACAGGGGGCCACAGCAGAAGCGUUCACGUCGCAGCCCUUGUCAGAUUCUGGUGAAUCUGCGAAUUCUGCUGUAUGCCUC belongs 0.29.
For the variant UAACAGGGGGCCACAGCAGAAGCGUUCACGUCGCAGCCCUAGUCAGAUUCUGGUGAAUCUACGAAUUCUGCUGUAUAUCUC, the self-cleavage is 0.54.
To UAACAGGGGGCCACAGCAGAAGCGUUCACGUCGCAGCCCACGUCCGAUUCUGGUGAAUCUCCGAAUUCUGCUGUAUAUCUC belongs 0.07; to UAACAGGGGGCCACAGCAGAAGCGUUCACGUCGCAGCCCAUGUCAGAUUCUGGCGCAUCUGCGAAUUCUGCUGUAUAUCUC, 0.12; to UAACAGGGGGCCACAGCAGAAGCGUUCACGUCGCAGCCCUCGUCAGAUACUGGUGAAUCUGCGAAUUCUGCUGUAUAUCUC, 0.5.
For UAACAGGGGGCCACAGCAGAAGCGUUCACGUCGCAGCCCUUGUCAGAUUGUGGUGGAUCUGCGAAUUAUGCUGUAUAUCUC the value was 0; for UAACAGGGGGCCACAGCAGAAGCGUUCACGUCGCAGCCCAUGACAGAUUCUGGUGAGUCUGCGUAUUCUGCUGUAUAUCUC, 0.14.
For UAACAGGGGGCCACAGCAGAAGCGUUCACGUCGCAGCCCUUGUCUGAUCCUGGUGAAUCUGCGAAUACAGCUGUAUAUCUC the value was 0.09; for UAACAGGGGGCCACAGCAGAAGCGUUCACGUCGCAGCCCGUGUCAGAUUCUGGUGAAUCAGCGAACUCUGCUGCAUAUCUC, 0.11.
Regarding UAACAGGGGGCCACAGCAGAAGCGUUCACGUCGCAGCCCUUGUCUGAUUCUGGUGAUUCUGCGAAUUCUGCUGUAUAACUC, the self-cleavage amounted to 0.05.
On to UAACAGGGGGCCACAGCAGAAGCGUUCACGUCGCAGCCCUAGUCAGAUUCUGGCGAAUCUGCGAAUUCUGCUGUAUAUCUC, for which the self-cleavage amounted to 0.46.
In the case of UAACAGGGGGCCACAGCAGAAGCGUUCACGUCGCAGCCCAUGUCAGGUUCUGGUGAAUCUGCGAACUCUGCUGUAUAUCUC, the self-cleavage came to 0.34.
To UAACAGGGGGCCACAGCAGAAGCGUUCACGUCGCAGCCCAUGUCAGAUCCUGGUGAAUCUGCGAAUUCUGCUGUAUGUCUC belongs 0.12; to UAACAGGGGGCCACAGCAGAAGCGUUCACGUCGCAGCCCUUGUCUGAUACUGGUGAAUCUGCGAAUUCUGCUGUAUAUCUC, 0.15; to UAACAGGGGGCCACAGCAGAAGCGUUCACGUCGCAGCCCUUGUCAGAUUCUGGUGUAUCUGCGAAUUCUGCUGUAUACCUC, 0.3.
For UAACAGGGGGCCACAGCAGAAGCGUUCACGUCGCAGCCCAUGUCAGAUUCUGGUGUAUCUGCGAAUCCUCCUGUAUAUCUC the value was 0.12.
For UAACAGGGGGCCACAGCAGAAGCGUUCACGUCGCAGCCCACGUCAGAUUCUGGUGAAUCCGCGAAUUCUGCUGUAUAUCCC, the self-cleavage turned out to be 0.15.
To UAACAGGGGGCCACAGCAGAAGCGUUCACGUCGCAGCCCUUGUCAGACUCUGGUGAAUCUGUGAAUUCUGCUGUAUAUCUC belongs 0.05.
To UAACAGGGGGCCACAGCAGAAGCGUUCACGUCGCAGCCCAUGACAGAUUCUGGUGUAUCUGCGAAUUCUGCUGUAUAUCUC belongs 0.12.
For UAACAGGGGGCCACAGCAGAAGCGUUCACGUCGCAGCCCUUGUCAGUUUCUGGUGAAUCAGCGAAUUCUGCUGUAUAUCUC the value was 0.38; for UAACAGGGGGCCACAGCAGAAGCGUUCACGUCGCAGCCCUUGUCGCAUUCUGGUGAAUCUGCGUAUUCUGCCGUAUAUCUC, 0.12.
Regarding UAACAGGGGGCCACAGCAGAAGCGUUCACGUCGCAGCCCUUGUCAGAUUCUGGUGUACCUGCGAAUUCUGCAGUAUAUCUC, the self-cleavage is 0.21.
To UAACAGGGGGCCACAGCAGAAGCGUUCACGUCGCAGCCCGUGUCAGAUUCUGGUGAAUCAGCGUACUCUGCUGCAUAUCUC belongs 0.14.
For UAACAGGGGGCCACAGCAGAAGCGUUCACGUCGCAGCCCAUGUCAGAUUAUGGUGAAUCUGCAAAUUCUGCUGUAUAUCUC the value was 0.09; for UAACAGGGGGCCACAGCAGAAGCGUUCACGUCGCAGCCCUUGUCAGAUUCUGGUGAGUCUGCGAAUUCAGCCGUAUAUCUC, 0.11.
As to UAACAGGGGGCCACAGCAGAAGCGUUCACGUCGCAGCCCUUGUCAGAUUCUAGUGAAUCUGCGAGUUCUGCUGUAUAUCCC, the self-cleavage amounted to 0.12.
For UAACAGGGGGCCACAGCAGAAGCGUUCACGUCGCAGCCCAUGUCAGAUUAAGGUGAAUCUGCUAAUUCUGCUGUAUAUCUC, the self-cleavage was 0.16.
For UAACAGGGGGCCACAGCAGAAGCGUUCACGUCGCAGCCCUUGUCAGGUUCUGGCGAAUCUGCGGAUUCUGCUGUAUAUCUC the value was 0.16; for UAACAGGGGGCCACAGCAGAAGCGUUCACGUCGCAGCCCGUGCCAGAUACUGGUGAAUCUGCGAACUCUGCUGUAUAUCUC, 0.12; for UAACAGGGGGCCACAGCAGAAGCGUUCACGUCGCAGCCCUUGUCAGGUUCUGGUGAAUCUGCGAAUUCUGCUGUGUACCUC, 0.35.
To UAACAGGGGGCCACAGCAGAAGCGUUCACGUCGCAGCCCUUGGCAGAUUCUGGGGAAUCUGCGAAUUCUGCUGUAUAUCUC belongs 0.15; to UAACAGGGGGCCACAGCAGAAGCGUUCACGUCGCAGCCCUUGUCCGAUUCUGGUGAAUCCGCGAAUUCCGCUGAGUAUCUC, 0.07.
To UAACAGGGGGCCACAGCAGAAGCGUUCACGUCGCAGCCCAUGUCAGAUUCUGGUAGAUCUGCGAAUUCUGCUGUAUAUCUC belongs 0.1.
Consider UAACAGGGGGCCACAGCAGAAGCGUUCACGUCGCAGCCCAUGUCAGAUUCUGGUGAAUCUGCGGAUUCUGCUGUAUAUCCC, for which the self-cleavage was found to be 0.18.
Take UAACAGGGGGCCACAGCAGAAGCGUUCACGUCGCAGCCCUUGCCACAUUCUGGUGAAUCUGCGAAUUCUGCUGUAUAUCUC: the self-cleavage worked out at 0.13.
For the variant UAACAGGGGGCCACAGCAGAAGCGUUCACGUCGCAGCCCUUGUCAGAUUCUGGUUAAUCUGCGAAUUCUGCUGCAUAUCCC, the self-cleavage worked out at 0.58.
For UAACAGGGGGCCACAGCAGAAGCGUUCACGUCGCAGCCCUUGCCAGAUUCUGGUGAGUCUGCGAAUUCUGCUGUAUAUCAC the value was 0.17; for UAACAGGGGGCCACAGCAGAAGCGUUCACGUCGCAGCCCAUGUCAGAAUCUGGGGAAUCUGCGAAUUCUGCUGUAUAUCCC, 0.22.
For UAACAGGGGGCCACAGCAGAAGCGUUCACGUCGCAGCCCUUGUCAGAUUCUGGUGAAUUUGCGAAUUCUGCUGUACAUCUC the value was 0.78; for UAACAGGGGGCCACAGCAGAAGCGUUCACGUCGCAGCCCUUGUCAGGUUCUGGUGGAUCUGUGUAUUCUGCUGUAUAUCUC, 0.08; for UAACAGGGGGCCACAGCAGAAGCGUUCACGUCGCAGCCCUUGUCAGAUUAUGGUGAAUCUGCGGGUUCUGCUGUAUAUCUC, 0.12.
For UAACAGGGGGCCACAGCAGAAGCGUUCACGUCGCAGCCCUUGUCGGAUUCUGGUGAAUCUGCGAAUUCUGCUGUAUACCUC the value was 0.45.
For the variant UAACAGGGGGCCACAGCAGAAGCGUUCACGUCGCAGCCCUUGUCAGAUUCUGGUGAGUCUGCGAAUUCUGCCGUAUAUCUC, the self-cleavage came out at 0.67.
On to UAACAGGGGGCCACAGCAGAAGCGUUCACGUCGCAGCCCGGGUCAGAUUCUGGUGAGUCUGCGAAUUCUGCUGUAUAUCUC, for which the self-cleavage is 0.35.
As for UAACAGGGGGCCACAGCAGAAGCGUUCACGUCGCAGCCCUUGUCGGAUUCUGGUGUAUCUGCGAAUUCUGCGGUAUAUCUC, the self-cleavage worked out at 0.11.
For UAACAGGGGGCCACAGCAGAAGCGUUCACGUCGCAGCCCUCGUCAGAUACUGGUGAAUCUGCGAAUCCUGCUGUAUAUCUC the value was 0.31; for UAACAGGGGGCCACAGCAGAAGCGUUCACGUCGCAGCCCGUGCCAGAUUCUGGUGAAUCUGCGAAUCCUGCUGUAUAUCCC, 0.18.
To UAACAGGGGGCCACAGCAGAAGCGUUCACGUCGCAGCCCUUGUCAGAUUCUGGUGAGUCUGCGUAUUCUGCUGUAUAUCUC belongs 0.2.
To UAACAGGGGGCCACAGCAGAAGCGUUCACGUCGCAGCCCUUGUCAGAUUCUGGUGAGUCUGCGGAUCCUGCUGUAUAUCUC belongs 0.05; to UAACAGGGGGCCACAGCAGAAGCGUUCACGUCGCAGCCCGAGUCUGGUUCUGGAGAAUCUGCGAAUUCUGCUGUAUAUCUC, 0.06.
UAACAGGGGGCCACAGCAGAAGCGUUCACGUCGCAGCCCAAGUCAGAUUCUGGCGAAUCUGCGAAUUCUGCCGUAUAUCUC: the self-cleavage stood at 0.26.
For UAACAGGGGGCCACAGCAGAAGCGUUCACGUCGCAGCCCGCGUCAGAUUCUGGUGGAUCUGCGAAUUCUGCUGUAUAUCUC the value was 0.21; for UAACAGGGGGCCACAGCAGAAGCGUUCACGUCGCAGCCCAAGUCAGACUCUGGUGAAUCUGCGAAUUCUGCUGUAUAUCUC, 0.08; for UAACAGGGGGCCACAGCAGAAGCGUUCACGUCGCAGCCCAUGUCAGAUCCUGGUGAAUCUGCGAAUUCUGCUGUAAAUCUC, 0.08.
As for UAACAGGGGGCCACAGCAGAAGCGUUCACGUCGCAGCCCAUGUCAGAUUCCGGUGAAUCUACGAAUUCUGCCGUAUAUCUC, the self-cleavage was 0.25.
For UAACAGGGGGCCACAGCAGAAGCGUUCACGUCGCAGCCCAUGUCAGAUUCUGGUAAUUCUGCGAAUUCUGCUGUAUAUCUC the value was 0.08.
To UAACAGGGGGCCACAGCAGAAGCGUUCACGUCGCAGCCCAUGUCAGAAUCUGGUGAAUCUGCUAAUUCUGCAGUAUAUCUC belongs 0.12.
For UAACAGGGGGCCACAGCAGAAGCGUUCACGUCGCAGCCCUUGCCAGAUUCUGGUGAAUCUGCGAUUUCUGCCGUAUAUCUC the value was 0.08; for UAACAGGGGGCCACAGCAGAAGCGUUCACGUCGCAGCCCUUGUCAGAUUCUGGUGGAACCGCGAAUUCUGCUGUAUAUCUC, 0.19.
As to UAACAGGGGGCCACAGCAGAAGCGUUCACGUCGCAGCCCAUGUCAGAUUCUGGUGGAUCUGCGAAUUCUGCUGUUUAUCUC, the self-cleavage stood at 0.05.
To UAACAGGGGGCCACAGCAGAAGCGUUCACGUCGCAGCCCAUGCCUGAUUCAGGUGAAUCUGCGAAUUCUGCUGUAUAUCUC belongs 0.16.

The values are drawn from the RNAGym collection of RNA variant scans (doi:10.1093/nar/gkz1192).
